Results: PubChem BioAssay AID686978 (National Center for Advancing Translational Sciences (NCATS), 2013)
About 64,000 (15%) of roughly 420,000 compounds were called active. The inconclusive results got no clear call from the source; some entries with a clear call stand among them for comparison. The call rests on the fitted dose curve; in most records, active means well fitted inhibition curve with a large enough effect; inconclusive means small, poorly fitted or top-dose-only effect; inactive means flat fitted curve, though single readings scatter. Potencies of inconclusive entries are left out as doubtful fits.

Assay: qHTS for Inhibitors of human tyrosyl-DNA phosphodiesterase 1 (TDP1): qHTS in cells in absence of CPT; further: nearly all actives have a fitted effect of over 55% in size
Details: DT40 Tdp1-/- hTDP1 cells, no CPT, ATP luminescence, 48 h; activity change, negative = growth inhibition: at 46.2 µM (top of the series) unless noted
In short: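 Stably hTDP1-transfected Tdp1-null chicken DT40 cells were treated with library compounds minus camptothecin and grown for at least 48 hr at 37 °C, after which cellular ATP was quantified by luminescence.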
On the % scale 0 is the no-effect control and ±100 the full control effect; potency means the concentration at half of the fitted maximal effect; tags describe the fitted curve by direction and shape.

SMILES | Potency | activity change, negative = growth inhibition
CC(C)/C(=N\NS(=O)(=O)c1ccc(Br)cc1)c1cccs1 | inconclusive [inhibitor, single point] | 
Cc1ccc(NC(=O)c2cc(-c3cccs3)nc3ccccc23)nc1 | active: 13 µM | 
COc1ccc2c(=O)c(C)c(-c3ccccc3)oc2c1CN(C)C | inconclusive [inhibitor, single point] | 
CC1(c2ccc(OC(F)F)cc2)NC(=O)N(CC(=O)Nc2ccc(Cl)cc2F)C1=O (stereo not drawn) | inconclusive [inhibitor, partial curve] | 
O=C(Cc1ccc(S(=O)(=O)N2CCOCC2)s1)NCCC(c1ccccc1)c1ccccc1 | inconclusive [inhibitor, single point] | 
CCn1c(=O)c2c(nc3n2CCCN3CCc2ccccc2)n(C)c1=O | inconclusive [inhibitor, partial curve] | 
COc1ccc(-c2nc3cnc(OC)nc3n(C)c2=O)cc1 | inactive | 
COc1cc(C(=O)NCC(c2cccs2)N2CCOCC2)ccc1OCc1ccccc1 (stereo not drawn) | inconclusive [inhibitor, single point] | 
COc1cc(CNC(=O)c2cc(-c3cc(C)cc(F)c3)n[nH]2)cc(OC)c1 | inconclusive [inhibitor, partial curve] | 
CCc1ccccc1NC(=O)C1=CC(c2cccs2)=NS(=O)(=O)N1C | inconclusive [inhibitor, single point] | 
Cc1cccc(Oc2ccc3c(c2)cc(C(=O)O)n3C)c1 | inactive | 
COc1ccc(-c2cn(-c3ccc(Br)cc3)c3[n+]2CCS3)cc1 | active: 6.51 µM | 
Cc1ccc(S(=O)(=O)N2CCN(C(C(=O)Nc3ccc(F)cc3)c3ccccc3)CC2)cc1 (stereo not drawn) | inconclusive [inhibitor, single point] | 
COc1ccc(C(=O)OCC(=O)Nc2cccc(C(C)=O)c2)cc1OC | inactive | 
NC(=O)c1ccsc1NC(=O)CCS(=O)(=O)c1ccccc1 | inconclusive [inhibitor, single point] | 
C[C@@H]1C=C(C(=O)NCc2ccccc2)O[C@H](OCc2ccc(CO)cc2)C1 | inactive | 
CC1(C)CCC(=NNC(N)=S)CC1 | active: 29.1 µM | 
COc1ccc2c(O)c(-c3c(C)cc(C)cc3C)c(=O)[nH]c2c1 | inconclusive [inhibitor, single point] | 
COc1ccc(CCn2c(=S)[nH]c3cc(C(=O)NCc4ccco4)ccc3c2=O)cc1OC | active: 16.4 µM | 
C=CCNc1nc(NCCNC(C)=O)c2sc(-c3ccccc3)cc2n1 | inconclusive [inhibitor, single point] | 
CCOc1ccc(C)cc1S(=O)(=O)n1cnc2ccccc21 | active: 4.11 µM | 
COc1cc(/C=N/NC(=O)c2cccc(N3CCCC3=O)c2)ccc1O | inactive | 
c1ccc2ncccc2c1 | inactive | 
O=c1[nH]c(Cc2cccc(C(F)(F)F)c2)nc2ccccc12 |  | inconclusive: -30.5% [inhibitor]
O=C(CSc1n[nH]c(-c2cccs2)n1)NCCc1ccccc1 |  | inconclusive: -30.9% [inhibitor]

SMILES | Potency | activity change, negative = growth inhibition
Clc1cccc(CN2CCC3CC2c2cc(N4CCCCC4)ccc23)c1 (stereo not drawn) | inconclusive [inhibitor, single point] | 
O=C(c1ccc2[nH]ccc2c1)N1CCCC(Nc2ccccc2)C1 (stereo not drawn) | inactive | 
CCOC(=O)c1c(C2CC2)csc1NC(=O)CSCc1c(C)noc1C | inactive | 
CC(=O)c1ccc(NC(=O)Nc2cccnc2)cc1 | inconclusive [inhibitor, single point] | 
O=C(CN1CCN(C(=O)C2CCCO2)CC1)Nc1ccc(F)cc1 (stereo not drawn) | inactive | 
COc1ccccc1CNC(=O)CNC(=O)c1cn(-c2ccccc2OC)c(=O)c2ccccc12 | inactive | 
CCOC(=O)CCn1c(=O)c2cccn2c2cccnc21 | inactive | 
CCN(CC)CCNc1ccc(CO)c2oc3ccccc3c(=O)c12 | active: 8.2 µM | 
CN(CC(=O)Nc1ccccc1C(F)(F)F)C(=O)c1cccc(-n2cccc2)c1 | inconclusive [inhibitor, single point] | 
Cc1ccc(-n2c(=O)c3c4c(sc3n3c(C)nnc23)COC(C(C)C)C4)cc1 (stereo not drawn) | inconclusive [inhibitor, partial curve] | 
CCc1ccc(/C=C/c2c([N+](=O)[O-])c(=O)n(C)c(=O)n2C)cc1 | inconclusive [inhibitor, single point] | 
O=C(CCCc1nc(-c2ccccc2)no1)NCc1cccnc1 | inconclusive [inhibitor, single point] | 
COc1ccccc1-c1ccc(Nc2cccc(C(C)=O)c2)nn1 | inactive | 
COc1ccc(N2C(=O)CSC23CCCCC3)cc1 |  | inconclusive: -30.9% [inhibitor]
O=c1ccn(Cc2ccc(F)cc2)c2ccnc(C(F)(F)F)c12 | inconclusive [inhibitor, single point] | 
Cc1cc2cc(CCNS(=O)(=O)c3ccc(Br)cc3)c(=O)[nH]c2cc1C | inconclusive [inhibitor, single point] | 
COCCN1Cc2cccc(C(=O)Nc3ccc(C(=O)OC)cc3)c2C1=O | inactive | 
O=C(C[n+]1cccc(Br)c1)c1cc(Cl)ccc1Cl | inconclusive [inhibitor, single point] | 
COc1ccc(NS(=O)(=O)c2cc(N/C(=N\S(=O)(=O)c3ccccc3)c3ccc(F)cc3)ccc2Cl)cc1 | inconclusive [inhibitor, single point] | 
CC(=O)c1ccc(C2CC(OCCF)=CC(=O)O2)cc1 (stereo not drawn) | inactive | 
CCNc1nc(NCC)n2c(SCc3ccc(F)cc3)nnc2n1 | inconclusive [inhibitor, single point] | 
O=c1cc(N2CCc3ccccc32)[nH]c(=O)n1-c1ccc(Cl)cc1 | inconclusive [inhibitor, partial curve, poor fit] | 
CCOc1ccc(-c2c(C)nn3c(C)c(C(=O)Nc4cccc(Cl)c4C)cnc23)cc1OCC | inconclusive [inhibitor, full curve, poor fit] | 
CCOC(=O)C(CCCCCOc1ccc([N+](=O)[O-])cc1)C(=O)OCC |  | inconclusive: -31.6% [inhibitor]
CCOC(=O)C1=C(COC(=O)c2cc(S(=O)(=O)N(C)C)ccc2C)NC(=O)NC1C (stereo not drawn) | inconclusive [inhibitor, partial curve, poor fit] | 

SMILES | Potency | activity change, negative = growth inhibition
COc1ccccc1-c1cccc(-c2nc(C(=O)Nc3nccs3)cc3c2[C@H](CCO)N(C(C)=O)C3)c1 | active: 5.8 µM | 
CC(=O)Nc1cccc(-c2cc(N3CCN(CCO)CC3)n3nccc3n2)c1 | inactive | 
O=C(CCS(=O)(=O)c1nc(-c2cccs2)cc(C(F)(F)F)n1)Nc1ccc(Br)cc1 | active: 3.66 µM | 
O=C(CNS(=O)(=O)c1cccc(Br)c1)NCCCc1ccccc1 |  | inconclusive: -30.6% [inhibitor]
CCCCc1cc(O)c(CCCC)c(O)c1 | active: 13 µM | 
COc1cccc(N=C2SC(CC(=O)Nc3ccccc3)C(=O)N2Cc2ccccn2)c1 (stereo not drawn) | inconclusive [inhibitor, single point] | 
COc1ccccc1C(=O)Nc1ccc2nc(SCC(=O)N3CCCC3)sc2c1 | active: 4.11 µM | 
Cc1ccc(C(=O)NCc2ccncc2)cc1S(=O)(=O)Nc1cccc(C)c1C | inactive | 
O=C(c1cc(Cl)nc2ccccc12)N1CCN(Cc2ccc3c(c2)OCO3)CC1 | inconclusive [inhibitor, partial curve, poor fit] | 
CCC(=O)Nc1ccc2c(c1)OC[C@@H](C)N(Cc1cccc(F)c1)C[C@@H](C)[C@@H](OC)CN(C)C2=O | active: 23.1 µM | 
O=c1c2cc(Br)ccc2nc(-c2ccccc2)n1O | inconclusive [inhibitor, single point] | 
N#C/C=C(/c1ccc(F)cc1)N1CCOCC1 | inactive | 
CC(=O)c1ccc(N=Nc2ccc(N)cc2)cc1 | inconclusive [inhibitor, single point] | 
CC(C)C#Cc1ccc2c(c1)O[C@@H](CN(C)C(=O)c1cnccn1)[C@@H](C)CN([C@@H](C)CO)S2(=O)=O | inconclusive [inhibitor, partial curve] | 
CC(=O)c1ccc(OC(C)C(=O)NCC2(N3CCOCC3)CCCCC2)cc1 (stereo not drawn) | inconclusive [inhibitor, single point] | 
Cc1ccc(S(=O)(=O)c2cccc(S(=O)(=O)N3CCOCC3)c2)cc1S(=O)(=O)N1CCOCC1 | inconclusive [inhibitor, partial curve] | 
Cc1cc(Br)cc(C)c1NC(=O)c1cnc2ccccn2c1=O |  | inconclusive: -31.4% [inhibitor]
Nc1nnc(CC(=O)N/N=C/c2cccc([N+](=O)[O-])c2)s1 | inactive | 
COc1ccc(C(=O)Nc2cccc(/C(C)=N\NC(=O)c3ccoc3C)c2)cc1OC | inconclusive [inhibitor, partial curve] | 
Cc1ccc(C(=O)NCC2CCCO2)cc1N1CCCC1=O (stereo not drawn) | inconclusive [inhibitor, single point] | 
COc1cccc(NS(=O)(=O)c2ccc3[nH]c4c(c3c2)CCCCCC4)c1 | active: 20.6 µM | 
COc1ccc(OC)c(/C=C2\SC(N3CCCC(C)C3)=NC2=O)c1 (stereo not drawn) | active: 20.6 µM | 
CCN(CC)C(=O)CSc1nc(C)cc(C)c1C#N |  | inconclusive: -32.5% [inhibitor]
